Assay results as given in patent publication US7399869B2, “Fibroblast activation protein inhibitor compounds and methods” (Genentech, Inc., priority 2005, dated 2008).

Tests used:
Format in all cases: biochemical
[1] = tested on: T1, C[C@@H](O)[C@H](NC(=O)[C@H](CCCCNC(=O)c1ccc(/N=N/c2ccc(N(C)C)cc2)cc1)NC(=O)[C@@H](N)CCCNC(=N)N)C(=O)N[C@@H](CO)C(=O)N[C@H](CO)C(=O)N1CCC[C@H]1C(=O)N[C@@H](CC(N)=O)C(=O)N[C@@H](CCC(N)=O)C(=O)N[C@@H](CCC(=O)O)C(=O)N[C@@H](CCC(N)=O)C(=O)N[C@@H](CCC(=O)NCCNc1cccc2c(S(=O)(=O)O)cccc12)C(=O)N[C@@H](CCCNC(=N)N)C(=O)O; experiment: Cleavage of FRET labelled peptide substrates by FAP; details: other: FRET peptide RK(dabcyl)TS-P2-PNQEQE(edans)R cleaved by FAP, assay buffer containing 0.1 mg/ml bovine serum albumin, pH 7.4
T1 construct: FAP (amino acids 38-760); FLAG (N); made in house; host or cells: 293 cells (secreted, purified from serum-free conditioned media)
Description: (§1) Cleavage by FAP of model peptide substrates can be detected and quantitated where the peptide is labelled with two moieties, a fluorescent reporter and quencher, which together undergo fluorescence resonance energy transfer (FRET). Cleavage of the FRET peptide releases fluorescence, i.e. ceases quenching. which may be detected and quantitated. […] Upon cleavage of the peptide by a peptidase or protease, a detectable increase in fluorescence may be measured (Knight, C. (1995) “Fluorimetric Assays of Proteolytic Enzymes”, Methods in Enzymology, Academic Press, 248:18-34).
(§2) Protease Assays—Protease activity was monitored continuously using a SpectraMax M2 microplate reader (Molecular Devices Corp., Sunnyvale Calif.) in the kinetic mode. Assays were conducted at 23° C. in 50 mM Tris (pH 7.4), 100 mM NaCl, 1 mM EDTA. The excitation/emission wavelengths for the different fluorogenic substrates were 360/460 nm (AMC), 400/505 nm (AFC), 340/425 nm (MNA), 340/510 nm (EDANS), and 337/425 nm (Abs). Standard curves of the appropriate fluorescent product versus concentration were used to convert relative fluorescence units to nmol of product produced. Substrates in the X-Pro-AMC library were used in rate assays at 5 μM final concentration. […] The kinetic parameters were calculated from Michaelis-Menten plots (V0 versus [S]) with nonlinear regression analysis using GraphPad software. kcat values were calculated under the assumption that each protease was 100% active.

[2] = tested on: T2, Cc1c(CC(N)=O)c(=O)oc2cc(NC(=O)[C@@H]3CCCN3C(=O)[C@@H](C)N)ccc12; experiment: as above; details: other: FRET peptide RK(dabcyl)TS-P2-PNQEQE(edans)R cleaved by FAP, assay buffer containing 0.1 mg/ml bovine serum albumin, pH 7.4
T2 construct: FAP (amino acids 38-760); FLAG (N); made in house; host or cells: 293 cells (secreted, purified from serum-free conditioned media)
Description: as §1, §2

[3] = tested on: T3, CC(=O)NCC(=O)N1CCCC1C(=O)Nc1ccc2c(C(F)(F)F)c(CC(N)=O)c(=O)oc2c1; experiment: Hydrolysis of C-terminal coumarin dipeptide substrates by FAP (kinetic constants); details: other: FAP, substrates with blocked N-termini, 23° C., pH 7.4, NC = no cleavage up to 1 mM substrate
T3 construct: FAP (amino acids 38-760); FLAG (N); made in house; host or cells: 293 cells (secreted, purified from serum-free conditioned media)
Experimental: (§3) The relative cleavage rates by FAP and several dipeptidases of N-blocked (8) and unblocked (7) Gly-Pro dipeptide substrates were measured.
(§4) The cleavage (hydrolysis) rates of various C-terminal coumarin dipeptide substrates 7-16 by FAP and DPP-4 were measured (Tables 4 and 5). The amino-terminus of the substrates was unblocked and the amino acids were varied in Table 4. The amino-terminus of the substrates was blocked and the amino acids were varied in Table 5. To extend the results obtained with the dipeptide substrate library, kinetic parameters were determined for cleavage of the unblocked dipeptide substrates by FAP (Table 4). The catalytic efficiency (kcat/Km) for substrate cleavage was greatest with Ile-Pro-AFC, followed by Ala-Pro-, Gly-Pro- and Phe-Pro-AFC, consistent with the dipeptide substrate library results (FIG. 5). […] Kinetic constants for cleavage of Ala-Pro-AFC and Gly-Pro-AFC by DPP-4 were determined (Table 4). The catalytic efficiency for Ala-Pro-AFC hydrolysis was greater than that for Gly-Pro-AFC, and consistent with the dipeptide library.
as §2
(§5) When saturating amounts of substrate could not be achieved, catalytic efficiencies (kcat/Km) were determined under pseudo-first order conditions ([S]<<the estimated Km) and fit to the following equation: Ln[St/S0]=−kobst, where St is the concentration of substrate remaining at time t, S0 is the initial substrate concentration and kobs is the apparent first order substrate cleavage constant equal to (kcat/Km) times ET, the total enzyme concentration (Copeland, R. (2000) Enzymes, A Practical Introduction to Structure, Mechanism, and Data Analysis, 2nd Ed., John Wiley and Sons, Inc, New York). The linear relationship of Ln[St/S0] versus time allows calculation of kcat/Km by dividing the slope of the plot by ET.

[4] = tested on: T4, NCC(=O)N1CCCC1C(=O)Nc1ccc2c(C(F)(F)F)c(CC(N)=O)c(=O)oc2c1; experiment: as above; details: other: FAP, substrates with unblocked N-termini, 23° C. in 50 mM Tris-HCl, 100 mM NaCl, 1 mM EDTA, pH 7.4, NC = no cleavage up to 1 mM substrate
T4 construct: FAP (amino acids 38-760); FLAG (N); made in house; host or cells: 293 cells (secreted, purified from serum-free conditioned media)
Experimental: as §3, §4, §2, §5

Substance: FAP (Homo sapiens) (sequence left out)
- Km [1]: 0.6 ± 0.1 µM
- kcat [1]: 2.2 ± 0.4 s⁻¹
- kcat/Km [1]: 3.5e+06 M⁻¹ s⁻¹
- Km [2]: 0.8 ± 0.1 µM
- kcat [2]: 1.9 ± 0.1 s⁻¹
- kcat/Km [2]: 2.5e+06 M⁻¹ s⁻¹
- Km [3]: 330 ± 3 µM
- kcat [3]: 7.7 ± 0.2 s⁻¹
- kcat/Km [3]: 23000 M⁻¹ s⁻¹
- Km [4]: 248 ± 12 µM
- kcat [4]: 5.6 ± 0.2 s⁻¹
- kcat/Km [4]: 23000 M⁻¹ s⁻¹
